In all, about 310,000 compounds went through this assay and about 2,200 (0.71%) showed an effect of 50% or more. The effect is printed as a negative number. The list shows a part of the results.
molecular target: human ether-à-go-go-related gene (hERG) potassium channel (human, UniProt Q12809); assay: primary screen, population patch clamp on CHO cells stably expressing hERG
Sequence (Q12809 whole entry, looked up): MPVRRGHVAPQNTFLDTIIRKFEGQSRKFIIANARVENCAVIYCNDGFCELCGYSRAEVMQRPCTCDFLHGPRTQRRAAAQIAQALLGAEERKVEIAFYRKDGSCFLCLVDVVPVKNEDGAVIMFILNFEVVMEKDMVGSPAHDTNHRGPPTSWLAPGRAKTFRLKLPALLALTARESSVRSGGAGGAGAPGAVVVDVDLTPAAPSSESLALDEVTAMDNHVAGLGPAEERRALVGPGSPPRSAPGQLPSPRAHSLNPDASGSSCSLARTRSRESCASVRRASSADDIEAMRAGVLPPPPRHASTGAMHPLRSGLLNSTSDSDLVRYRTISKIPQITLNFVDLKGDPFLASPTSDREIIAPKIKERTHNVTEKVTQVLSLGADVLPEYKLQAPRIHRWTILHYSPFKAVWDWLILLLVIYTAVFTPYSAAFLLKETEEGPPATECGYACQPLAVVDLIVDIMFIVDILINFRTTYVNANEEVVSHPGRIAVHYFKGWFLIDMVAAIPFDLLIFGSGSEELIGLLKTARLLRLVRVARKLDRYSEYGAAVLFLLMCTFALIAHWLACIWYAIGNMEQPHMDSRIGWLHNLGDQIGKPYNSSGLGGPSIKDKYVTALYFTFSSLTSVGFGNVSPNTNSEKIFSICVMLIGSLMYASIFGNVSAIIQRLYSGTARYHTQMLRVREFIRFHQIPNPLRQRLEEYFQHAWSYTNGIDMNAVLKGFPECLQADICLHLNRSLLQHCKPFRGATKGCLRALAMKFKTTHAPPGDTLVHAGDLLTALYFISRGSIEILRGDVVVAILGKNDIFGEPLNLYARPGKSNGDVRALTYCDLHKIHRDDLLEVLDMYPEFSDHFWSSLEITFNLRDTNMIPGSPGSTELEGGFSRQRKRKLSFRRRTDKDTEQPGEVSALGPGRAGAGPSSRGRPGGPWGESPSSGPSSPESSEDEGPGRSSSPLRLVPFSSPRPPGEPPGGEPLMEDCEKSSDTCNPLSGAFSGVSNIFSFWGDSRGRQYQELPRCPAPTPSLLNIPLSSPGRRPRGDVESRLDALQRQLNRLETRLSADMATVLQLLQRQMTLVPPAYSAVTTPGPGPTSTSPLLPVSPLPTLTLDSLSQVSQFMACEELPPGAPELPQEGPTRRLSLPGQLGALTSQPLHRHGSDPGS

SMILES	hERG current change (%, negative = inhibition) at 1uM [%]
COc1cc(OC)cc(C(=O)N[C@H](C(=O)Nc2ccc3c(c2)OCO3)C(C)C)c1	11.4
COc1ccc(Cl)cc1N1C(=O)CN(Cc2cc(OC)c(OC)c(OC)c2)C1=S	7.29
CC1CCN(CC(O)COC2CC(C)CC(C)(C)C2)CC1.Cl (stereo not drawn)	-12.7
COc1ccc(C(=O)Nc2ccccc2C(=O)NCCN2CCOCC2)cc1OC	10.7
OCCn1c(CSc2nnc(-c3ccco3)n2-c2ccccc2)nc2ccc(Cl)cc21	8.13
COc1ccc(-c2ccc3c(c2)S(=O)(=O)c2cccc(C(=O)NCCOc4ccccc4)c2C3=O)cc1OC	1.2
Cc1cccc(N(C(=O)c2ccc(CN3CCOCC3)o2)C(C(=O)NC2CCCCC2)c2ccc(F)cc2)c1 (stereo not drawn)	9.88
COC(=O)CNc1nc(Cl)nc(NC2CCCCC2)n1	12.7
CN1CCN(c2ccc(-c3ccnn3C(=O)Nc3ccccc3)cc2)CC1	-0.435
O=C(CCS(=O)(=O)Cc1ccccc1)Nc1nnc(C(F)(F)F)s1	15.4
CCOc1cc(C(=O)N=c2sccn2C)cc(Br)c1OC	14.1
COc1ccc(NC(=O)NC2CCCCC2C)cc1 (stereo not drawn)	9.34
Cc1ccc(C(=O)N/N=C\c2c(C)nn(-c3ccccc3)c2Cl)cn1	2.32
Cc1cc(C)cc(N2C(=O)N(c3ccccc3C)C3CS(=O)(=O)CC32)c1 (stereo not drawn)	17.3
N#Cc1cnc(Sc2ccccc2)nc1	5.13
Nc1c(C(=O)N/N=C/c2ccc(OCc3ccccc3)cc2)cnn1-c1ccccc1	9.13
CS(=O)(=O)Oc1ccc(/C=N/NC(=O)c2ccncc2)cc1	7.51
O=[N+]([O-])c1cnc[nH]1	13.5
C=CCO/N=C(/C)c1ccc(Oc2cnccn2)cc1	-21

SMILES	hERG current change (%, negative = inhibition) at 1uM [%]
O=C(Nc1ccc2oc(-c3ccccc3F)nc2c1)c1ccco1	5.48
COC(=O)c1cc(Br)c(=O)n(CCc2ccccc2)c1	3.82
CCN(CC)CCn1c2c(c(SCC(=O)Nc3nc4ccccc4s3)nc1=O)CCC2	-22.8
Cc1c(C(=O)Nc2nccs2)oc2ccc(F)cc12	14.5
Cc1cccn2c(=O)c3cc(C(=O)NCCc4ccccc4)sc3nc12	0.776
O=C(CCCOc1cccc(Br)c1)NC1CCC(O)CC1 (stereo not drawn)	8.24
CC(=O)c1ccc(N2CCN(C(=O)c3ccc4c(c3)OCO4)CC2)cc1	-14.4
Cc1cc(C(=O)c2cnc(/N=C/N(C)C)s2)cc(C)c1O	5.23
COc1ccc(S(=O)(=O)N2CCOC23CCN(S(=O)(=O)c2ccccc2)CC3)cc1	8.63
CCN(CC)CC(=O)Nc1cccc2c1C(=O)c1ccccc1C2=O	18.7
Cc1cc(C)c(OCC(=O)Nc2ccc(NC(=O)c3ccco3)cc2)c([N+](=O)[O-])c1	14.8
O=C(Nc1nnc(CC(=O)N2CCOCC2)s1)c1cccs1	7.54
O=C(O)C(=O)O.O=C(c1ccccc1F)N1CCN(Cc2cccc(Cl)c2)CC1	-6.08
O=C(CCS(=O)(=O)c1cccc2nonc12)N1CC(=O)N(CCc2ccccc2)C(=O)C1	7.63
N#CCSc1nc2ccc(N3CCCCC3)cc2c(=O)n1Cc1ccccc1	13.7
COc1cccc(C(=O)C[n+]2ccccc2/C=N/O)c1.[Br-]	9.55
O=C(CSc1ncccc1-c1nc2ccccc2[nH]1)Nc1ccc2c(c1)OCCO2	-3.2
CNC(C)C#Cc1ccc2c(=O)c3cc(C)c(C)cc3oc2c1 (stereo not drawn)	8.09
Cc1ccc(NS(=O)(=O)c2ccc3c(c2)CC(=O)N3)c(C)c1	-2.48

SMILES	hERG current change (%, negative = inhibition) at 1uM [%]
CC(C)(C)c1csc(NC(=O)Cn2c(=O)oc3ccccc32)n1	-5.9
CN(CC(=O)NC1CCN(Cc2ccccc2)CC1)S(=O)(=O)c1ccc(Br)s1	9.14
O=C(O)COCC(=O)NCc1nc(-c2ccc(C(F)(F)F)cc2)no1	16.4
[N-]=[N+]=NCC/C=C\C1NS(=O)(=O)OCC1O (stereo not drawn)	10.6
COC(=O)C1=C(C)N(c2ccc(S(N)(=O)=O)cc2)C(=O)C1	6.08
Cc1ccc(CNC(=O)CN2CCN(c3ccc(F)cc3)CC2)cc1	-8.38
CN(CC(=O)Nc1ccc(F)c(F)c1F)C(=O)CC1OC(=O)c2ccccc21 (stereo not drawn)	-5.19
COc1cccc(CN2CC(C(=O)NCCCn3ccnc3C)CCC2=O)c1 (stereo not drawn)	16.7
O=C(NC1CC1)c1sccc1-n1cccc1	3.85
CCC(=O)Nc1ccc(C(=O)NCc2ccccn2)cc1	12.7
Cc1cc(F)ccc1S(=O)(=O)N(C(=O)c1ccncc1)c1ccc(OC(=O)c2ccncc2)cc1	5.64
CCOc1ccc(C(=O)C(C)OC(=O)Cn2c(C)csc2=O)cc1 (stereo not drawn)	-1.43
CCCn1nc(C(=O)OCC(=O)c2c(N)n(C)c(=O)n(C)c2=O)c2ccccc2c1=O	7.06
O=C(Nc1ccc2nn(-c3ccc(F)cc3)nc2c1)c1cccnc1	13.3
O=C(CN(C(=O)Cn1nnc(-c2ccc(F)cc2)n1)C1CCCC1)NC1CCCC1	5.86
O=C(COc1ccccc1Cl)N1CCCC1	13.7
COCCn1cc(C(=S)N2CCCCC2)c2ccccc21	11.9
Cc1ccc[n+](CC(=O)Nc2ccc(C)c(C)c2)c1.[Cl-]	14.5
COc1ccccc1NC(=O)c1ccccc1-c1ccccc1C(=O)O	9.09

— PMC4336329 (PLoS ONE, 2015)
